From the RNAGym collection of RNA variant scans (doi:10.1073/pnas.2313332121) come the findings set out here.

Variants at the floor of the assay are shown more often than the library holds them.

B1: TPR 5TU (parent)
chain: GGAUCUUCUCGAUCUAACAAAAAAGACAAAUCUGCCACAAAGCUUGAGAGCAUCUUCGGAUGCAGAGGCGGCAGCCUUCGGUGGCGCGAUAGCGCCAACGUUCUCAACUAUGACACGCAAAACGCGUGCUCCGUUGAAUGGAGUUUAUCAUG

In the series the parent is B1. Nature of the series: polymerase ribozyme fitness, log enrichment relative to wild type (log ratio); higher = more active; in vitro selection for triplet polymerase activity. A digest of the protocol:
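Each subunit of a heterodimeric triplet polymerase ribozyme was mutagenized into a library by PCR, transcribed, and subjected to one round of in vitro selection, run in triplicate. Libraries were annealed with a biotinylated primer, the partner subunit and triplets, incubated frozen at −7 °C, and extended constructs were gel-excised, captured on streptavidin beads and recovered by RT-PCR. Input and output libraries were sequenced on Illumina, keeping genotypes with ≥10 input reads and ≥1 read per output. Fitness is log base 2 of genotype enrichment divided by wild-type enrichment, from inverse-variance-weighted replicate averages.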
In the case of U33A A49C G59A G81U, the “polymerase ribozyme fitness (log ratio)” value is no more than -4.2. As to A30U U44A C57G G59A C75A G83U G84C U109G, the “polymerase ribozyme fitness (log ratio)” value is no more than -4.2. Take C32G C87U A107U A113C C116A: the “polymerase ribozyme fitness (log ratio)” value is no more than -4.2. As for C32A G83A G88C C116G G140C, the “polymerase ribozyme fitness (log ratio)” value was -4.04.

As to U33G C43U A60U G88A U109G U135G G143A, the “polymerase ribozyme fitness (log ratio)” value was -4.09. Take U33A U44A G58C C93G A97G C125A: the “polymerase ribozyme fitness (log ratio)” value is no more than -4.2. For A30U C75G C87G G124A, the “polymerase ribozyme fitness (log ratio)” value was no more than -4.2. In the case of G34A C87U C105U U145G, the “polymerase ribozyme fitness (log ratio)” value is no more than -4.2. Regarding A30U U56A G62A G126A, the “polymerase ribozyme fitness (log ratio)” value is -3.5. Take U31A G92C C131U U135C U151C: the “polymerase ribozyme fitness (log ratio)” value is no more than -4.2.

As for U31G A40C G42A G50A C54U C72U G94U, the “polymerase ribozyme fitness (log ratio)” value was no more than -4.2. With A30U C95G, the “polymerase ribozyme fitness (log ratio)” value was -3.94. Take C32G C35A: the “polymerase ribozyme fitness (log ratio)” value was -3.92. Regarding C32G U45G G46C G84U C87A A120G U135A U146C A150U, the “polymerase ribozyme fitness (log ratio)” value is no more than -4.2. In the case of C32U G59C A122U G143U it was no more than -4.2. With U31G G46A C93G U151A, the “polymerase ribozyme fitness (log ratio)” value is no more than -4.2.

On to U31G C51G G94C U134G A137G, for which the “polymerase ribozyme fitness (log ratio)” value is no more than -4.2.

For the variant U33C A39U G62A G86A A107U, the “polymerase ribozyme fitness (log ratio)” value was no more than -4.2.

Take U33C U55A A60U: the “polymerase ribozyme fitness (log ratio)” value is no more than -4.2.

As to U33G C35A C95G A120G C125U, the “polymerase ribozyme fitness (log ratio)” value was no more than -4.2.

On to U31G A60C G62C C69G C96U, for which the “polymerase ribozyme fitness (log ratio)” value was no more than -4.2. With U33G C54U C75U A89U C99A A115G, the “polymerase ribozyme fitness (log ratio)” value was no more than -4.2. Take C32G C38U C72A U82A A120G U146G: the “polymerase ribozyme fitness (log ratio)” value was no more than -4.2. In the case of U33G C87A it was no more than -4.2; in that of C32A U82C, no more than -4.2; in that of U31G A91G C108U C118A U144G A150C, no more than -4.2.

In the case of U31A C54G C57A C85G C123U, the “polymerase ribozyme fitness (log ratio)” value is -3.47. The figure for U31A C76G C95U is no more than -4.2; for U31A G50A C51G G59A G68C G86C G94U G124U it is no more than -4.2; for C32U C87U C103G it is no more than -4.2. As for A30U U33C G50U U61A C108U C123U A138U A142G U151A, the “polymerase ribozyme fitness (log ratio)” value is no more than -4.2.

C32G A119C: the “polymerase ribozyme fitness (log ratio)” value was no more than -4.2. In the case of U31A A49G G50C G84U A98U C125A U130G it was no more than -4.2; in that of U31C G34U A52U U56A A60G G84A G92A C95G C105A A110C G133C U148A, no more than -4.2.

On to C32G U45A G50C C57A U101A A110U U148C, for which the “polymerase ribozyme fitness (log ratio)” value is no more than -4.2. In the case of U31G C36G A52U G58U C85U A97G A150G it was no more than -4.2; in that of C32G C69U C85U C149G G152A, no more than -4.2; in that of U33G G42A U77C G84C C85U G117U, no more than -4.2.

Take C32G U90G U134G G141A: the “polymerase ribozyme fitness (log ratio)” value was no more than -4.2.

Turning to A30U U33C C72U G84U C116U G141U, the “polymerase ribozyme fitness (log ratio)” value was no more than -4.2.

On to U33G C114A C118G A137C, for which the “polymerase ribozyme fitness (log ratio)” value is no more than -4.2. In the case of U31A G80U G112C it was no more than -4.2; in that of U31G A41U G48U G67A A97C C103G, no more than -4.2. Regarding U31G C38U G46A G59U C96G C118U U145C, the “polymerase ribozyme fitness (log ratio)” value is no more than -4.2. For C32U G117C U148C, the “polymerase ribozyme fitness (log ratio)” value is no more than -4.2. For the variant U31G A37G U61A C85G G141U A150U, the “polymerase ribozyme fitness (log ratio)” value is no more than -4.2. As for C32A C35U C69A C75U A150G, the “polymerase ribozyme fitness (log ratio)” value is no more than -4.2. The figure for U31C G50C U61A C76A is no more than -4.2; for C32A C38A U56A C69U C93A A122C G126U it is no more than -4.2.

For the variant U33G A39C A120C, the “polymerase ribozyme fitness (log ratio)” value is no more than -4.2. Consider C32G C38U G58A U82A C96A U104G A110C G133A U139A G152U, for which the “polymerase ribozyme fitness (log ratio)” value is no more than -4.2. On to C32U U144A, for which the “polymerase ribozyme fitness (log ratio)” value is -2.41. The figure for U31C C57U G83U C85G U90A G94U U104C U148C is no more than -4.2. The figure for U33G G34U is no more than -4.2. U33A A41C U55A C63U G71A C105A A147C: the “polymerase ribozyme fitness (log ratio)” value was no more than -4.2. The figure for U31G C38U A89U C93G is no more than -4.2.

Regarding U33A G84A C95A A110G, the “polymerase ribozyme fitness (log ratio)” value was no more than -4.2. For U31A G86U, the “polymerase ribozyme fitness (log ratio)” value was -0.886. Take U31C A52G G86U G88A G152U: the “polymerase ribozyme fitness (log ratio)” value was no more than -4.2. In the case of A30U C123G U135C, the “polymerase ribozyme fitness (log ratio)” value is no more than -4.2. In the case of U33G G59A G94U, the “polymerase ribozyme fitness (log ratio)” value was -3.39. Turning to C32U U53A A91C G94A C105G A121U U151C, the “polymerase ribozyme fitness (log ratio)” value was no more than -4.2. For A30U U78A C96U U102G, the “polymerase ribozyme fitness (log ratio)” value was no more than -4.2. On to U33C C87G, for which the “polymerase ribozyme fitness (log ratio)” value was no more than -4.2. With A30U U44A C85A A110C U111C, the “polymerase ribozyme fitness (log ratio)” value is no more than -4.2. With A30U U144A, the “polymerase ribozyme fitness (log ratio)” value was -3.67. As for U33G U44A A142G, the “polymerase ribozyme fitness (log ratio)” value was no more than -4.2. On to U33G C72G G80A C85A U151G, for which the “polymerase ribozyme fitness (log ratio)” value is no more than -4.2.

Take A30U U104A A150U: the “polymerase ribozyme fitness (log ratio)” value is no more than -4.2. As to A30U G74C U148A, the “polymerase ribozyme fitness (log ratio)” value was no more than -4.2. For the variant U33C A40C U55A A110G, the “polymerase ribozyme fitness (log ratio)” value was no more than -4.2. C32U G59C C76A: the “polymerase ribozyme fitness (log ratio)” value is no more than -4.2. For the variant U31C A39C C54U A73G U90G G124A, the “polymerase ribozyme fitness (log ratio)” value was no more than -4.2. On to U31A A49U A60G G83U U102G A115U, for which the “polymerase ribozyme fitness (log ratio)” value is no more than -4.2. For C32G C54A C75U U77A C85U A106G U135C, the “polymerase ribozyme fitness (log ratio)” value is no more than -4.2.

For the variant C32U A60G A142G, the “polymerase ribozyme fitness (log ratio)” value is -3.31. As to A30U C76A C96G U135G, the “polymerase ribozyme fitness (log ratio)” value is no more than -4.2. For the variant U33G G59U G71U A106C A107G A113C U134G U146G, the “polymerase ribozyme fitness (log ratio)” value is no more than -4.2.

As for U31A C32A C87A C93A G124C G143A, the “polymerase ribozyme fitness (log ratio)” value was no more than -4.2.

U31G C95A: the “polymerase ribozyme fitness (log ratio)” value was determined as 0.165.

For the variant A30U G68U G83U U109G U139A, the “polymerase ribozyme fitness (log ratio)” value is no more than -4.2.

Consider C32A A40C G84A, for which the “polymerase ribozyme fitness (log ratio)” value was no more than -4.2. For the variant C32A C43U G50A C72U C76G, the “polymerase ribozyme fitness (log ratio)” value is no more than -4.2.
